Read counts are not given, so values of variants with three or more changes are uncertain.
B1: LINE1-mini (parent)
chain: GGCAGAGCUCAACACAGCGUGGCAAAGUGGCUGUGGCUAGACUGCC

Variants of: B1
Assay: self-cleavage, relative activity (ratio to wild type); higher = more cleavage; in vitro, sequencing; the parent is a self-cleaving ribozyme

Variant	self-cleavage
GGCAUAGCUCAACACAGCGUAGCAAAGUGUCUGCGGCAAUACUGCA	0.04
CGCAGAGUUCAACGAAGCGUGGUAAAGUUGCUGUGGCUAGACUGCC	0.03
GGCAGAACUCAAAACAGCGUGGCAAAGUGGCUGUUGCUAGACUGCC	0.44
GGCAGAGUUCAACAAAGCGUGGCAAAGUGGCUGUGCCUCGACUGCC	0.05
GGCAGAGCACAACACAGCAUGGCAAAGUCGCGGUGGCUAGACUGCA	0.09
GGCAGAGCUCAACAUAGCGUGGCAAAGUGGCUGUGGCUACAUUACG	0.02
GGCAGAGCCCAACACAGCGUGGCAAAGUGGCUGUGGCUAGAGUCCC	0.01
GGCAGAGCUCGACACAGCGUGGCAAAGAGGCUUUGGCUUGACUGCC	0.01
GGCAGAGCUCAACAAAGCGUGGCAAAGAGGCUGGGUCUAGACUUCC	0.06
GGCAGAGCUCACUACAGCGUGGCGAAGUGGCUGUGGCUAGACUGCC	0
GGCAGUGCUCAACACAAUGUGGCAAAGUGGCUGUGGCUAGACUGCC	0.38
GGUAGAGCUUAACUCAGCGUGGCAAAGUGGAUGUGGCUAGACUGCC	0.06
GGUAGAGCUCAACACAGCGUGGCAAAGUUGGUGUGGCAAGACUGCC	0.35
GGCGGAGCUCAACACAGCUUGUCAAAGUGGCUGUGGUUACACUGCU	0.1
GGCAGACCUCAACACAGCGUGGUAAAGUGGCUGUGGCCAGACUGCC	0.17
GGCAGAACUCAACACAGCGUGGCAAUGUGGAUGUGGCUAGACUGCC	0.03
GGCAAAGCUCAACACAGCGUGUCUAAGUGGCUGUGGCUAGACUGCC	0.14
GGCAGGGCUCAACACAGCAUGGCAGAGUGGCUGUGGCUAGACUGCC	0.03
GGCAGAGCUCAACACAGCGUGGCAAAGGGGCUGUGGUUAGACUGAC	0.01

Variant	self-cleavage
GGCAGAGCUCAAAACAGCGUGGCACAAUGCCUGUGGCUAGACUGCC	0.14
GGCUGAGCUCUACACAGCGUGGCAAAGUGGCUGUGGCUAGAACGCA	0.01
GGCAGAUCUCAACACAGCGUGGCAAAGUGGCUCUGGCUAUACUGCC	0.02
GGCAGAGCUCAACACAGCGUGAUAAUGUGGCUGUGGCUAUACUGCC	0.05
GCCAGAGCUCAACACACCCUGGCAAAGUGGCUGUGGCUAGACUAUC	0.3
GGCAGGGCUAAACACAGCGUGGCACAGUGGCUGUGGCUAGACUACC	0.03
GGCAGAGUUGAAGACUGCGUGGGAAAUUGUCUGUGGCUAGACUGCC	0.01
GGCAAAACUCAACACAGCGUGACAAAGUGGCUGUGGCUAGACUGCC	0.3
GGCAGAGCUCAACACAGCGUCGCAAAAUGGCUGAGGCUAGACUGCC	0.45
GGCAGAGGUCAACACAGCGAGGCAAAGUGGCUGUGAGUAGACUACC	0
GGCAGUGCUCAACUCAGCGUGUCAAAGUGGGUGUGGACAGACUGCC	0
GGCAGAGCUCAACACAUCGUGGCGAAGUGGCGGUGGCUAGACUGCC	0.01
GGCAGAGCUCAGCACGGCGCGGCAAAGUGGCUGUGGUUCAACUGCC	0.03
GGCAGAGCGCAACACAGCGUUGCAAAGUGGCUAUGGCUAGACUGCC	0.04
AGCAGAGCUCAACACAGCGUGGCAAAGUGGUCGCGGCUAGACUGCC	0.05
GGCAGAGCUCAACACAGAGUGGCAAAAGGGCUGUGGCUAGACUGCC	1.37
GGCAGAGCUCAACACAACGUGGCAAUGUGGCUCUGGCUAGACUGUC	0.07
GGCAGAGCUCAACAGAGCGUGGCAAAGUGGCUGUGGCUAAUCUGAC	0
GGCAGAGCUCAACAGAGCGUGGCAAAGUGGCCGUGUCUAGACUGCC	0.06

Variant	self-cleavage
GGGAGAGCUCAACACAGCGUGGCAAAGUGGCUGUGGCUGCACUGCC	0.07
GGGAGAGCACAACACAGCGUGGCAAAGUGGCUUUGGCUAGACUGCC	0.24
GGCAGAGCUCAACACAGCGUGUCACAGUGGUUGUGGCUAGUCUGCC	0.1
GACAGAGCUCAACACAGCGUGGCAAAGUGGUUGUGGAUAGACUGCC	0.22
GACAAAGCUCAACACAGCGUGGCAAAGUGGCUAUGGCUAGACUGCC	1.03
GGCAGAGCUCAACACAGUGUGGCAAAGUGGCUGUGCCUAGAUUGCC	0.05
GGCAGAACUCAAGACAGCAUGGCAAAGUGGCAGUGGCUAGACUGCC	0.31
GGUAGAGCUGAACACAGCGUGUCAAAGUGGCUGUGGCUAGACUGUC	0.03
GGCAGAGUUAAACACAGCGUGGCAAAGUCGAUGUGGCUAGACAGUC	0.02
GGCAGAGGUCAACACAGCGUGGCAAAGUGGCUGUGGCUCGACUACC	0.03
GGAUGAGCUCAACACAGCGUGUCAAAGUGGCUGUGGCUAGACUGCC	0.66
GCCAUAGCUGAACACAGCGUGGCAAAGUGGCGGCGGCUAGACUGCC	0
GCCAGAGUUAAACACAGCGUGGCAAAGUGGCUGUGGCUAGACUGCC	0.03
GGCAGAGCACAACACAGAGUGGAAAAUUGGCUGUGGCUAGACUGCC	0.15
CGCAGAGCUCAACACUGCGUUGCCAAGUGUCUGUGGCUAGUCUGCA	0.02
GACAGAGCUCAACACAGGGUGGCAAAGUGGGUGUGGCUAGACUGAC	0.04
GGCAGAGCUCAGCACAGCGUGGCAAAGUGGCUGUGACUAGAUCGCC	0.11
UGCAGAGCUCAAGACAGCGUGGCAAAGUGGCUGUGGCUAGGCUGCC	0.3

From the RNAGym collection of RNA variant scans (doi:10.7554/elife.90254)
